Test results as given in PubChem BioAssay AID1745849 (National Center for Advancing Translational Sciences (NCATS), 2022).
About 320 (15%) of roughly 2,100 compounds were called active. The inconclusive results got no clear call from the source; some entries with a clear call stand among them for comparison. The call rests on the fitted dose curve; in most records, active means well fitted cell-killing curve with a large enough effect; inconclusive means small, poorly fitted or top-dose-only effect, or effect the other way; inactive means flat fitted curve, though single readings scatter. A potency beside an inconclusive call is a rough fit, not a confirmed value.

assay: Viability Counterscreen for CMV-Luciferase Assay of Inhibitors of ATXN expression; details: HEK-293 CMV-luciferase cells viability, protease fluorescence, 24 h; activity change, negative = cytotoxicity: at the top concentration; further: nearly all actives have a fitted effect of over 55% in size
In short: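 HEK-293 cells stably expressing a CMV-luciferase reporter were exposed to compounds at several concentrations for 24 hr at 37 degree C. Viability was read as Gly-Phe-AFC fluorescence (25 uM final, 30 min). SteadyGlo luminescence was then measured after 5 min.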
On the % scale 0 is the no-effect control and ±100 the full control effect; potency means the concentration at half of the fitted maximal effect; tags describe the fitted curve by direction and shape.

SMILES	activity change, negative = cytotoxicity	Potency
CN1OC[C@@H]2CN[C@H](c3ccc(-c4cc5ccccc5o4)cc3)C[C@@H]21	inactive: -1.7% [at 57.5 µM]	
CCN(CC)S(=O)(=O)c1ccc(NC(=O)Nc2cccc(C(F)(F)F)c2)cc1		inconclusive: 8.91 µM [cytotoxic, single point]
Cc1ccc(Cc2cnc(N3C(=N)SC(C)C3=O)s2)cc1 (centres undefined)	inactive: -1.76%	
O=C(Nc1ccc(Cl)c([N+](=O)[O-])c1)c1ccc(NCCCN2CCOCC2)c([N+](=O)[O-])c1		inconclusive: 20 µM [cytotoxic, partial curve, poor fit]
C/C(=N\OCC(=O)N/N=C/c1ccccc1O)c1cccs1		inconclusive: 15.8 µM [cytotoxic, partial curve]
CCC(=O)NC(c1ccco1)c1cc(Br)c2cccnc2c1O (centres undefined)		inconclusive: 10 µM [cytotoxic, partial curve]
CS(=O)(=O)c1ccc(Nc2nc(C(N)Cc3ccc(C(F)(F)F)cc3)cs2)cc1 (centres undefined)		inconclusive: 14.1 µM [cytotoxic, partial curve, poor fit]
COc1ccccc1Cc1c(-c2ccco2)nc2c(C)cc(Br)cn12		active: 8.91 µM
O=C(CN1C(=O)c2ccccc2S1(=O)=O)c1ccc(Cl)cc1Cl	inactive: 6.64% [at 57.5 µM]	
CN1CCC(N(C)C(=O)c2ccc(Cl)c(S(=O)(=O)N3CCc4ccccc43)c2)CC1	inactive: -12.2% [at 57.5 µM]	
N=c1n(CCCOc2ccccc2Cl)c2ccccc2n1CC(N)=O		inconclusive: 22.4 µM [cytotoxic, partial curve, poor fit]
O=C(CN1C(=O)c2ccccc2S1(=O)=O)c1ccc(O)c(O)c1	inactive: -3.1%	
COc1ccccc1/C=C/CN1CCCC(CO)(Cc2cccc(Cl)c2)C1 (centres undefined)		inconclusive: 17.8 µM [cytotoxic, single point]
COc1cc(/C=N/Nc2ccc(Cl)c(C(=O)O)c2)ccc1OC(=O)c1ccco1	inactive: 1.18%	
CC(=O)C(=Cc1cccc(C#N)c1)C(=O)c1ccccc1		active: 22.4 µM
Cc1ccc(Cl)cc1N1CCN(C(=O)CCS(=O)(=O)c2ccc3c(c2)NC(=O)CO3)CC1		inconclusive: 20 µM [cytotoxic, single point]
CCCN(CCC)S(=O)(=O)c1ccc(C(=O)Nc2nnc(-c3cc(OC)cc(OC)c3)o2)cc1		active: 7.08 µM
CCCCOc1ccc(C(=O)NNC(=S)NC(=O)CC)cc1		inconclusive: 12.6 µM [cytotoxic, partial curve, poor fit]
Cc1cccc(NC2=Nc3ccccc3N3C2=Nc2c(c(C)nn2-c2ccccc2)C3c2ccc(O)c(O)c2)c1 (centres undefined)		inconclusive: 3.16 µM [rising, partial curve]
CCN(CC)CCNc1ccc(CO)c2sc3ccccc3c(=O)c12		active: 25.1 µM
CC1Cc2cc(-c3csc(NC(=O)Cc4cccs4)n3)ccc2N1S(C)(=O)=O (centres undefined)		inconclusive: 3.55 µM [cytotoxic, single point]
CN(Cc1cnc2nc(N)nc(N)c2n1)c1ccc(C(=O)N[C@@H](CCC(=O)O)C(=O)O)cc1		inconclusive: 39.8 µM [rising, single point]

SMILES	activity change, negative = cytotoxicity	Potency
Cc1cc(N2CCN(C)CC2)ccc1NC(=O)c1ccc(-c2ccc(Cl)cc2)o1	inactive: -20.4% [at 57.5 µM]	
COc1cc(NC(=O)c2cccc3c(-c4cnn(C)c4)coc23)cc(OC)c1OC		inconclusive: 22.4 µM [cytotoxic, single point]
COc1cccc(/C=C2\SC(=S)N(CCCC(=O)N(CCO)c3ccccc3)C2=O)c1		inconclusive: 3.55 µM [cytotoxic, single point]
O[C@@H]1[C@@H](O)C=C2CCN3Cc4cc5c(cc4[C@H]1C23)OCO5 (some centres undefined)		active: 6.31 µM
O=C(NC(Nc1ncc(S(=O)(=O)c2ccc([N+](=O)[O-])cc2)s1)(C(F)(F)F)C(F)(F)F)c1ccc(Cl)cc1		active: 10 µM
Cc1ccccc1NC(=O)CSc1n[nH]c(-c2ccccn2)n1		active: 20 µM
COCc1ccc(CN2CCC(C(=O)Nc3cccc(-c4cccc(Cl)c4)c3)CC2)o1		active: 17.8 µM
Cn1nnnc1Sc1ncnc2scc(-c3cccs3)c12		active: 8.91 µM
N#Cc1nc(Cc2cccc3ccccc23)oc1NCc1ccc(F)cc1		inconclusive: 22.4 µM [cytotoxic, single point]
CC(=O)N1c2ccc(S(=O)(=O)N3CCC(C(=O)Nc4cccc(C(F)(F)F)c4)CC3)cc2CC1C (centres undefined)	inactive: -28.3% [at 57.5 µM]	
O=C(CCCN1C(=O)/C(=C/c2ccccc2Cl)SC1=S)NNC(=O)c1ccc(Cl)cc1		inconclusive: 12.6 µM [cytotoxic, partial curve, poor fit]
Cn1nc(C(=O)N2CCN(c3ccc(Cl)cc3)CC2)c2c1-c1ccccc1S(=O)(=O)C2	inactive: 10.7%	
CC(=O)NC(c1cccc([N+](=O)[O-])c1)c1ccc2cccnc2c1O (centres undefined)		active: 1.58 µM
COC(=O)c1ccccc1COc1cccn2c(N(C)Cc3cccs3)c(C)nc12		inconclusive: 39.8 µM [cytotoxic, single point]
COc1ccc(OCC(=O)N/N=C/c2cccc3cccnc23)cc1		inconclusive: 11.2 µM [cytotoxic, partial curve, poor fit]
CCc1ccc(CNC(=O)C2CCN(c3nnc(C)c4c(C)n(-c5ccc(C)cc5)nc34)CC2)cc1		inconclusive: 22.4 µM [cytotoxic, single point]
CCOc1ccc2[nH]c3c(NCCc4ccc(OC)c(OC)c4)ncnc3c2c1		inconclusive: 39.8 µM [cytotoxic, single point]
COc1ccc(CNC(=O)CSc2nc(-c3ccccc3)cc(-c3cccs3)c2C#N)cc1	inactive: -20.3%	
COc1cccc(C2CC(c3c(-c4ccccc4)c4cc(Cl)ccc4[nH]c3=O)=NN2S(C)(=O)=O)c1OC (centres undefined)	inactive: -22.3%	
Cc1cccc(NC(=O)c2cc(-c3ccccn3)nc3ccccc23)c1C		inconclusive: 25.1 µM [cytotoxic, single point]
CCCc1cc(=O)n2[nH]cc(-c3ccc(Cl)cc3)c2n1		inconclusive: 1.78 µM [cytotoxic, full curve, poor fit]
COC(=O)c1cn(NC(=O)c2cc([N+](=O)[O-])ccc2F)c(=O)c2ccccc12		inconclusive: 3.55 µM [cytotoxic, full curve]
